Measured values from the supplement of paper PMC6609913.
Counter-ions that a name gives are not always drawn. ± gives the standard deviation of the averaged measurements. In all, about 1,300 compounds were measured (“normalised cell viability”: median about 1, lowest 2% from about 0.15 on). This is one part of the list.

Tested on: V-C8 + BRCA2 (BRCA2-proficient hamster cells)
Experiment: normalised cell viability (fraction of plate median); higher = more viable cells (less toxic)
Settings: 5 µM
Outline: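 In two screens, library drugs at 5 μM were given for 3 days (screen 1) or 6 days (screen 2) to hamster V-C8 cells without BRCA2 and V-C8 cells with BRCA2 restored, seeded 24 h earlier in 96-well plates. A resazurin assay gave the cell viability readout, expressed as modified robust per cent of sample against the plate median, with triplicate wells averaged.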

Structure (SMILES)	normalised cell viability (treatment time: 3 days)	normalised cell viability (treatment time: 6 days)
N=C(N)NCCN1CCCCCCC1 [Guanethidine sulfate]	0.978 ± 0.042	0.941 ± 0.065
CC1(C)[C@@H](OC(=O)CCC(=O)O)CC[C@]2(C)[C@H]3C(=O)C=C4[C@@H]5C[C@@](C)(C(=O)O)CC[C@]5(C)CC[C@@]4(C)[C@]3(C)CC[C@@H]12 [Carbenoxolone disodium salt]	1.02 ± 0.03	1.02 ± 0.06
CC(CN(C)C)CN1c2ccccc2Sc2ccccc21 (centres undefined) [Trimeprazine tartrate]	0.976 ± 0.024	0.969 ± 0.029
CC(C(=O)O)c1ccc(C(=O)c2ccccc2)s1 (centres undefined) [Tiaprofenic acid]	0.467 ± 0.025	0.53 ± 0.017
CC(=O)N(CC(O)CN(C(C)=O)c1c(I)c(C(=O)NCC(O)CO)c(I)c(C(=O)NCC(O)CO)c1I)c1c(I)c(C(=O)NCC(O)CO)c(I)c(C(=O)NCC(O)CO)c1I (centres undefined) [Iodixanol]	0.975 ± 0.053	1 ± 0.059
c1ccc(CN(CC2=NCCN2)c2ccccc2)cc1 [Antazoline hydrochloride]	1.03 ± 0.027	1.043 ± 0.0053
CN(C)CC/C=C1/c2ccccc2COc2ccc(CC(=O)O)cc21 [Olopatadine hydrochloride]	1 ± 0.024	0.996 ± 0.033
C=CCSCC1Nc2cc(Cl)c(S(N)(=O)=O)cc2S(=O)(=O)N1 (centres undefined) [Althiazide]	0.915 ± 0.018	1.01 ± 0.1
C[C@]12CC[C@@H]3c4ccc(OS(=O)(=O)O)cc4CC[C@H]3[C@@H]1CCC2=O [Estropipate]	0.988 ± 0.036	0.914 ± 0.14
Cc1ccc(S(=O)(=O)NC(=O)NN2CCCCCC2)cc1 [Tolazamide]	1 ± 0.066	0.935 ± 0.085
CCOC(=O)c1ccc(N)cc1 [Benzocaine]	0.871 ± 0.023	0.9583 ± 0.0066
CCN(CC)CCOC(=O)C(c1ccccc1)c1ccccc1 [Adiphenine hydrochloride]	0.961 ± 0.033	0.916 ± 0.11
OC(CCCN1CCCCC1)(c1ccccc1)c1ccccc1 [Diphenidol hydrochloride]	1.08 ± 0.066	1.05 ± 0.025
Nc1nc(NC2CC2)c2ncn([C@H]3C=C[C@@H](CO)C3)c2n1 [Abacavir Sulfate]	1.04 ± 0.02	1.07 ± 0.034
CCN(CC)CCNc1ccc(CO)c2sc3ccccc3c(=O)c12 [Hycanthone]	0.305 ± 0.045	0.239 ± 0.0094
CN(Cc1cnc2nc(N)nc(N)c2n1)c1ccc(C(=O)N[C@@H](CCC(=O)O)C(=O)O)cc1 [Methotrexate]	0.253 ± 0.0062	0.2 ± 0.018
CN(Cc1cnc2nc(N)nc(N)c2n1)c1ccc(C(=O)N[C@@H](CCC(=O)O)C(=O)O)cc1 (racemic) [Amethopterin (R,S)]	0.242 ± 0.0062	0.212 ± 0.0063
CNC(C)CCC=C(C)C (centres undefined) [Isometheptene mucate]	1.03 ± 0.022	0.991 ± 0.057
O=C(COc1ccc(Cl)cc1)N1CCN(Cc2ccc3c(c2)OCO3)CC1 [Fipexide hydrochloride]	1.02 ± 0.046	1.07 ± 0.065
Cc1ccsc1/C=C/C1=NCCCN1C [Morantel tartrate]	1.03 ± 0.024	1.06 ± 0.011
CN(C)c1ccc(O)c2c1C[C@H]1C[C@H]3[C@H](N(C)C)C(O)=C(C(N)=O)C(=O)[C@@]3(O)C(O)=C1C2=O [Minocycline hydrochloride]	0.944 ± 0.064	0.859 ± 0.077
CN(C)[C@@H]1C(O)=C(C(N)=O)C(=O)[C@@]2(O)C(O)=C3C(=O)c4c(O)cccc4[C@@](C)(O)[C@H]3[C@H](O)[C@@H]12 [Oxytetracycline dihydrate]	1.03 ± 0.02	1.05 ± 0.052
CC1=C(/C=C/C(C)=C/C=C/C(C)=C\C(=O)O)C(C)(C)CCC1 [Isotretinoin]	1.01 ± 0.035	1.02 ± 0.042

Structure (SMILES)	normalised cell viability (treatment time: 3 days)	normalised cell viability (treatment time: 6 days)
CC/C(=C(/CC)c1ccc(O)cc1)c1ccc(O)cc1 [Diethylstilbestrol]	1.05 ± 0.028	1.06 ± 0.11
CSc1ccc2c(c1)N(CCC1CCCCN1C)c1ccccc1S2 (centres undefined) [Thioridazine hydrochloride]	0.334 ± 0.26	0.247 ± 0.14
NC(N)=Nc1nc(CSCC/C(N)=N/S(N)(=O)=O)cs1 [Famotidine]	1.16 ± 0.079	1.1 ± 0.096
Cc1cc(-c2ccccc2)nnc1NCCN1CCOCC1 [Minaprine dihydrochloride]	1.1 ± 0.02	1.03 ± 0.048
COc1cc(-c2ccc(=O)[nH]n2)ccc1OC(F)F [Zardaverine]	0.9672 ± 0.0083	0.994 ± 0.028
COc1cc(NC(C)CCCN)c2ncccc2c1 (centres undefined) [Primaquine diphosphate]	0.903 ± 0.036	0.899 ± 0.089
CCCCC1(COC(=O)CCC(=O)O)C(=O)N(c2ccccc2)N(c2ccccc2)C1=O [Suxibuzone]	1.03 ± 0.074	1.03 ± 0.04
CCCCNc1c(C(=O)OCC)c(C)nc2c1cnn2CC [Tracazolate hydrochloride]	1 ± 0.032	1.02 ± 0.034
CC(COc1ccccc1)NC(C)C(O)c1ccc(O)cc1 (centres undefined) [Isoxsuprine hydrochloride]	1.07 ± 0.021	1.03 ± 0.062
CC(C)(C)c1ccc(C(O)CCCN2CCC(C(O)(c3ccccc3)c3ccccc3)CC2)cc1 (centres undefined) [Terfenadine]	0.118 ± 0.0067	0.103 ± 0.0052
CCOC(=O)NNc1nncc2ccccc12 [Todralazine hydrochloride]	0.967 ± 0.082	0.955 ± 0.047
CCCCN1CCCCC1C(=O)Nc1c(C)cccc1C (centres undefined) [Bupivacaine hydrochloride]	0.962 ± 0.049	1.03 ± 0.038
CCN(CCO)CCCC(C)Nc1ccnc2cc(Cl)ccc12 (centres undefined) [Hydroxychloroquine sulfate]	0.606 ± 0.024	0.666 ± 0.032
CC(=O)[C@H]1CC[C@H]2[C@@H]3CC=C4C[C@@H](O)CC[C@]4(C)[C@H]3CC[C@]12C [Pregnenolone]	1 ± 0.067	1.07 ± 0.12
COc1ccc(CC2c3cc(OC)c(OC)cc3CC[N+]2(C)CCC(=O)OCCCCCOC(=O)CC[N+]2(C)CCc3cc(OC)c(OC)cc3C2Cc2ccc(OC)c(OC)c2)cc1OC (centres undefined) [Atracurium besylate]	0.89 ± 0.068	0.98 ± 0.059
CN(C)CCCN1c2ccccc2Sc2ccc(Cl)cc21 [Chlorpromazine hydrochloride]	0.692 ± 0.051	0.734 ± 0.011
CCOc1ccccc1OC(c1ccccc1)C1CNCCO1 (centres undefined) [Reboxetine mesylate]	0.969 ± 0.019	1.05 ± 0.036
C[C@@H]1C[C@H]2[C@@H]3C[C@H](F)C4=CC(=O)C=C[C@]4(C)[C@@]3(F)[C@@H](O)C[C@]2(C)[C@@]1(O)C(=O)COC(=O)C(C)(C)C [Flumethasone pivalate]	0.991 ± 0.015	1.03 ± 0.08
Nc1ccc(S(=O)(=O)Nc2ccccn2)cc1 [Sulfapyridine]	0.987 ± 0.038	1.01 ± 0.021
Nc1ccn([C@@H]2O[C@H](CO)[C@@H](O)[C@@H]2O)c(=O)n1 [Cytarabine]	0.221 ± 0.004	0.271 ± 0.031
COc1ccnc(C[S+]([O-])c2nc3cc(OC(F)F)ccc3[nH]2)c1OC (centres undefined) [Pantoprazole sodium]	0.964 ± 0.042	1.03 ± 0.037
O=C(O)[C@H]1/C(=C/CO)O[C@@H]2CC(=O)N21 [Potassium clavulanate]	1.01 ± 0.029	0.9843 ± 0.0039
O=C(OCCOCCO)c1ccccc1Nc1cccc(C(F)(F)F)c1 [Etofenamate]	0.988 ± 0.045	0.987 ± 0.061

Structure (SMILES)	normalised cell viability (treatment time: 3 days)	normalised cell viability (treatment time: 6 days)
Cc1cnc(C(=O)O)c[n+]1[O-] [Acipimox]	1.07 ± 0.017	1.05 ± 0.023
COc1ccc(CN2CCN(C(c3ccc(F)cc3)c3ccc(F)cc3)CC2)c(OC)c1OC [Lomerizine hydrochloride]	0.874 ± 0.023	0.879 ± 0.045
COc1ccc(C(=O)c2ccccc2O)c(O)c1 [Dioxybenzone]	1.04 ± 0.03	1.09 ± 0.051
CC(C)(C)NC[C@H](O)COc1ccccc1C1CCCC1 [Penbutolol sulfate]	0.819 ± 0.085	0.89 ± 0.079
Nc1nc2[nH]cc(CCc3ccc(C(=O)N[C@@H](CCC(=O)O)C(=O)O)cc3)c2c(=O)[nH]1 [Pemetrexed disodium]	0.509 ± 0.057	0.511 ± 0.045
CCOc1ccc(NC(C)=O)cc1 [Phenacetin]	1.049 ± 0.0076	1.06 ± 0.017
CN1CCC[C@@H]1CCO[C@](C)(c1ccccc1)c1ccc(Cl)cc1 [Clemastine fumarate]	0.907 ± 0.084	0.908 ± 0.021
CC(C(=O)O)c1ccc(C(=O)c2cccs2)cc1 (centres undefined) [Suprofen]	1.02 ± 0.049	1.11 ± 0.042
COc1cc2ncnc(Nc3ccc(F)c(Cl)c3)c2cc1OCCCN1CCOCC1 [Gefitinib]	0.904 ± 0.081	0.824 ± 0.033
CCCCC[C@H](O)/C=C/[C@H]1[C@H](O)CC(=O)[C@@H]1CCCCCCC(=O)O [Alprostadil]	1.01 ± 0.054	1.01 ± 0.022
CCN1CCC[C@H]1CNC(=O)c1c(O)c(Cl)cc(Cl)c1OC [Raclopride]	0.884 ± 0.097	0.814 ± 0.085
NCc1ccc(S(N)(=O)=O)cc1 [Mafenide hydrochloride]	1.03 ± 0.046	0.9782 ± 0.0063
CN[C@@H]1[C@H](O[C@H]2[C@H](O[C@H]3[C@H](O)[C@@H](O)[C@H](NC(=N)N)[C@@H](O)[C@@H]3NC(=N)N)O[C@@H](C)[C@]2(O)CO)O[C@@H](CO)[C@H](O)[C@H]1O [Dihydrostreptomycin sulfate]	0.911 ± 0.07	0.983 ± 0.042
CC/C(=C(\c1ccccc1)c1ccc(OCCN(C)C)cc1)c1ccccc1 [Tamoxifen citrate]	0.878 ± 0.054	0.88 ± 0.021
CCc1oc2ccccc2c1C(=O)c1cc(Br)c(O)c(Br)c1 [Benzbromarone]	1.05 ± 0.034	1.08 ± 0.049
C#C[C@]1(O)CC[C@H]2[C@@H]3CCC4=C(CCC(=O)C4)[C@H]3CC[C@@]21C [Norethynodrel]	1 ± 0.032	1.06 ± 0.1
CC(C)(C)NCC(O)c1cc(O)cc(O)c1 (centres undefined) [Terbutaline hemisulfate]	0.45 ± 0.037	0.5206 ± 0.0045
NS(=O)(=O)c1cc2c(cc1Cl)NC(CC1CCCC1)NS2(=O)=O (centres undefined) [Cyclopenthiazide]	1 ± 0.034	1.05 ± 0.064
CCOC(=O)[N-]c1c[n+](N2CCOCC2)no1 [Molsidomine]	1.04 ± 0.05	1.1 ± 0.028
CC[N+](CC)(CC)CCOc1cccc(OCC[N+](CC)(CC)CC)c1OCC[N+](CC)(CC)CC [Gallamine triethiodide]	0.93 ± 0.011	0.95 ± 0.022
CC(C)NCC(O)c1ccc(O)c(O)c1 (single isomer, unassigned; (-)) [(-)-Isoproterenol hydrochloride]	1.05 ± 0.093	0.993 ± 0.1
